Laboratory results: PubChem BioAssay AID1454 (National Center for Advancing Translational Sciences (NCATS), 2008)
The whole screen tested about 130,000 compounds, of which about 550 (0.42%) were called active. The shares of active, inactive and inconclusive entries below differ from those in the screen. Calls follow the shape of the dose curve; as a rule, active = well fitted inhibition curve with a large enough effect; inconclusive = small, poorly fitted or top-dose-only effect, or effect the other way; inactive = flat fitted curve, though single readings scatter. No potency is given beside an inconclusive call; the fits are too rough.

Assay: qHTS Assay for Inhibitors of the ERK Signaling Pathway using a Homogeneous Screening Assay; Stimulation with EGF; also: nearly all actives have a fitted effect of over 55% in size;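 as to activity change, negative = inhibition: plate controls were stimulated vehicle wells for no effect and unstimulated vehicle basal for full effect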
Details: HEK293-V1b, EGF-stimulated phospho-ERK AlphaScreen; activity change, negative = inhibition: at the top concentration
How it was run: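 After overnight plating in 1% FBS, HEK293-V1b cells received test compound for half an hour, then a 5 min pulse of EGF (25 nM); ERK phosphorylation in lysates was read by bead-based AlphaScreen.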
Tags tell the direction and shape of the fitted curve.

Row | Compound | Potency | activity change, negative = inhibition
1 | O=C(c1c[nH]c2ccccc12)C(F)(F)F | inconclusive [inhibitor, partial curve] | –
2 | C=C1C2CC[C@@]3(C)C(c4ccoc4)OC(=O)C[C@@]13OC1CC(=O)C(C)(C)C(C(O)C(=O)OC)[C@]12C (some centres undefined) | – | inactive: -3.38%
3 | Cn1c(=O)c2c(nc(NC3CCCCC3)n2Cc2ccccc2)n(C)c1=O | inconclusive [inhibitor, single point] | –
4 | O=C(CCNC(=O)c1ccccc1Cl)Nc1cc(C(F)(F)F)ccc1Cl | – | inactive: 0.247%
5 | CCCCC(=O)Oc1ccccc1C(=O)O | – | inactive: 19.3%
6 | Cc1ccc(C(=O)CC2(O)C(=O)N(C)c3ccccc32)s1 (centres undefined) | inconclusive [activator, full curve] | –
7 | CCOC(=O)C1(CC2CCCCO2)CCN(Cc2cc3ccccc3[nH]2)CC1 (centres undefined) | inconclusive [inhibitor, single point] | –
8 | CCOc1cccc(C(=O)NC(=S)Nc2ccc(N3CCN(CC)CC3)cc2)c1 | inconclusive [inhibitor, single point] | –
9 | CCN(CC)CCNC(=O)c1ccc2c(c1NCCO)C(=O)c1ccccc1C2=O | inconclusive [inhibitor, partial curve] | –
10 | CN1CCc2cccc3c2C1Cc1ccc(O)c(O)c1-3 (centres undefined) | inconclusive [inhibitor, single point] | –
11 | Cc1cc(C(=O)N[C@@H](c2ccccc2)[C@]2(C)C[C@H]2[C@@H](C)C(=O)Nc2ccc3ccccc3c2)n(C)n1 | inconclusive [inhibitor, single point] | –
12 | N#CCCN1CCCc2cc(N=Nc3ccc(C(F)(F)F)cc3)ccc21 | active: 22.4 µM | –
13 | CC1CCC2C(=O)N(c3ccc(NC4CCN(Cc5ccccc5)CC4)c([N+](=O)[O-])c3)C(=O)C2C1 (centres undefined) | inconclusive [inhibitor, partial curve] | –
14 | CCCCC(c1nnnn1CCOC)N1CCN(Cc2ccccc2)CC1 (centres undefined) | – | inactive: 9.43%
15 | CCCCCCCCCCC(C)(C)C(=O)Nc1c(OC)cc(OC)cc1OC | – | inactive: -9.5%
16 | CCOC(=O)/C(C#N)=C/c1ccc(N2CCCCC2)cc1 | inconclusive [activator, partial curve] | –
17 | O=C(CSc1ncnc2nc[nH]c12)c1ccc2ccccc2c1 | inconclusive [inhibitor, single point] | –
18 | CCOC(=O)c1ccccc1NC(=S)N1CCN(C2CCCCC2)CC1 | inconclusive [inhibitor, single point] | –
19 | FC(F)(F)c1ccc(C2[C@H]3CN(Cc4cccnc4)[C@H](c4ccccc4)C34CC2(c2ccccc2)C4)cc1 (some centres undefined) | inactive | –
20 | O=c1[nH]c(N/N=C/c2ccc(O)cc2)nc2ccccc12 | inconclusive [inhibitor, partial curve] | –
21 | CCc1cc2c(=O)c(-c3cnn(-c4ccccc4)c3)c(C)oc2cc1OCC(=O)Nc1ccc(F)c(F)c1 | – | inactive: 4.94%
22 | O=C(C[n+]1ccccc1)c1ccc(-c2ccccc2)cc1 | – | inactive: 1.65% [at 57.5 µM]
23 | O=[N+]([O-])c1cc(S(=O)(=O)c2ccc(N3CCCCC3)c([N+](=O)[O-])c2)ccc1N1CCCCC1 | inconclusive [inhibitor, partial curve] | –

Row | Compound | Potency | activity change, negative = inhibition
24 | CC1(C)CC(=O)c2c(oc3cc4c(cc23)OCO4)C1 | – | inactive: 3.5%
25 | Cc1ccn2c(NC3CCCC3)c(-c3cccs3)nc2c1 | inconclusive [inhibitor, single point] | –
26 | O=C(N[C@H]1CCCc2ccccc21)O[C@@H]1C(=O)c2cc(Br)ccc2O[C@H]1c1ccc2c(c1)OCO2 | – | inactive: -4.26%
27 | CC(=O)N1C2(C=CC1(C)C(=O)NCc1cc(F)cc(C(F)(F)F)c1)CCCCC2 (centres undefined) | – | inactive: 2.47%
28 | Cc1cccnc1NC(=S)NC(=O)/C=C/c1ccccc1 | – | inactive: 2.37%
29 | COc1ccc(CNc2ncnc3c2[nH]c2cc(OC)c(OC)cc23)cc1 | – | inactive: -6.05% [at 57.5 µM]
30 | O=C(CCS(=O)(=O)c1ccccc1)Nc1nc(-c2ccc(F)cc2)cs1 | inconclusive [inhibitor, partial curve, poor fit] | –
31 | CCCCCCNC(=O)N[C@H](C(=O)NCCC[C@H]1CN2C(=NC[C@H]2C)N1CCC(c1ccccc1)c1ccccc1)C(C)O (some centres undefined) | – | inactive: 9.11% [at 57.5 µM]
32 | O=c1ccc2c(OCCCCc3ccccc3)c3ccoc3cc2o1 | inconclusive [activator, partial curve, poor fit] | –
33 | Nc1nc(N2CCN(C(=O)c3ccco3)CC2)nc2ccc(Br)cc12 | inconclusive [inhibitor, single point] | –
34 | CCOc1cc(/C=C2/SC(=S)N(CC3CCCO3)C2=O)ccc1O (centres undefined) | inconclusive [inhibitor, single point] | –
35 | CS(=O)(=O)Nc1ccc([N+](=O)[O-])cc1Oc1ccccc1 | inconclusive [inhibitor, single point] | –
36 | CN1CCN(NC(=O)c2ccc(Cl)s2)CC1 | inconclusive [inhibitor, single point] | –
37 | C=C(C)COc1ccc(-c2[nH]ncc2Oc2ccc(OC)cc2)c(O)c1 | inconclusive [inhibitor, single point] | –
38 | CC(OC(=O)CCN1C(=O)c2cccc([N+](=O)[O-])c2C1=O)C(=O)Nc1cc(Cl)cc(Cl)c1 (centres undefined) | inconclusive [inhibitor, single point] | –
39 | CC(Nc1n[nH]c(=O)[nH]c1=O)C(=O)N/N=C/c1ccccc1 (centres undefined) | – | inactive: 13.1% [at 57.5 µM]
40 | COc1cccc2c1C(=O)c1c(O)c3c(c(O)c1C2=O)C[C@](O)(C(C)=O)C[C@H]3O[C@@H]1C[C@H](N)[C@H](O)[C@H](C)O1 | – | inactive: -0.577% [at 25.7 µM]
41 | OC1(c2ccc(OC(F)F)cc2)CSC(=Nc2cccnc2)N1Cc1ccco1 (centres undefined) | inconclusive [inhibitor, single point] | –
42 | CC(=O)c1ccc2c(c1)N(C)c1ccccc1S2 | inconclusive [activator, partial curve] | –
43 | Cc1ccc(NC(CC(=O)c2ccccc2)C(=O)O)cc1Cl (centres undefined) | inconclusive [inhibitor, single point] | –
44 | Cc1nc2c(-c3ccc(Cl)cc3)cnn2c2c1CCC2 | inconclusive [activator, single point] | –
45 | CCCCCC(=O)NC(=S)Nc1cccc(-c2nc3ncccc3o2)c1 | inconclusive [inhibitor, single point] | –
46 | Clc1cnc2nc(SC/C=C/c3ccccc3)[nH]c2c1 | inconclusive [inhibitor, full curve] | –

Row | Compound | Potency | activity change, negative = inhibition
47 | Cc1ccc(-c2nc(P(=O)(c3ccccc3)c3ccccc3)c(N3CCOCC3)o2)cc1 | inconclusive [inhibitor, single point] | –
48 | COc1ccc(C(C)=O)cc1CSc1nc(C)cc(C)n1 | inconclusive [activator, partial curve, poor fit] | –
49 | Cc1ccc(S(=O)(=O)Nc2ccc3c(c2)OCCO3)cc1C | – | inactive: 5.03%
50 | COc1ccc(N2CCN(C(c3ccc4ncccc4c3)c3nnnn3C(C)C)CC2)cc1 (centres undefined) | – | inactive: 9.83% [at 57.5 µM]
51 | CCN(CC)C(=O)Cn1cc(S(=O)(=O)CC(=O)NC2CCCCC2)c2ccccc21 | – | inactive: -20.9%
52 | O=C(NCc1ccccc1)C1=C[C@@H](c2csc3ccccc23)C[C@@H](OCc2ccc(CO)cc2)O1 | inconclusive [inhibitor, partial curve] | –
53 | COc1ccccc1-c1nccc(NCc2cccc(C)c2)n1 | – | inactive: 26.7%
54 | CC(C)Cc1ccc(C(C)C(=O)Nc2ncccn2)cc1 (centres undefined) | inconclusive [inhibitor, single point] | –
55 | O=[N+]([O-])c1ccc(O)c(/C=N\N=C2c3ccccc3-c3ccccc32)c1 | – | inactive: -5.03%
56 | Cc1ccc(C(=O)NN2C(=O)/C(=C/c3cn(C)c4ccccc34)SC2=S)cc1 | – | inactive: 2.99%
57 | Cc1cc(N/N=C/c2ccc(Cl)cc2Cl)nc(NCc2ccccc2)n1 | – | inactive: -2.69%
58 | Cc1ccc(/C(N)=N/OC(=O)c2cccc(Cn3cc(C(F)(F)F)ccc3=O)c2)cc1 | inconclusive [inhibitor, partial curve, poor fit] | –
59 | CC(C)(C)c1ccc(/C=C2/SC(N3CCCC3)=NC2=O)cc1 | inconclusive [inhibitor, single point] | –
60 | N#C/C(=C\c1ccccc1)C(=O)Nc1cccnc1 | inconclusive [inhibitor, single point] | –
61 | COC(=O)c1nc(-c2ccccc2)oc1N1CCOCC1 | inconclusive [inhibitor, single point] | –
62 | Cc1ccc(C)c(N2CCN(C(=O)c3cccn4c(=O)c5sccc5nc34)CC2)c1 | – | inactive: -0.985%
63 | c1ccc(-n2ncc3c(N4CCCC4)ncnc32)cc1 | inconclusive [inhibitor, full curve, poor fit] | –
64 | CCNC(=O)NC(=O)C(C)OC(=O)CCS(=O)(=O)c1ccc(C)cc1 (centres undefined) | inconclusive [inhibitor, partial curve] | –
65 | Cc1ccc(-c2ccc(C(=O)Nc3ccccc3)o2)c2ccccc12 | inconclusive [inhibitor, partial curve] | –
66 | COc1ccc(CCC(C)Nc2ccccc2F)cc1 (centres undefined) | inconclusive [activator, single point] | –
67 | O=C1CC(c2c(F)cccc2Cl)C(n2cncn2)C(O)=C1C1NCCc2ccccc21 (centres undefined) | – | inactive: -2.18%
68 | COc1cc(C(=O)NC(=S)Nc2ccccc2[N+](=O)[O-])cc(OC)c1OC | inconclusive [inhibitor, partial curve, poor fit] | –
69 | CCOc1ccccc1NC(=O)C(OC(=O)c1ccc(O)cc1)c1ccccc1 (centres undefined) | inconclusive [inhibitor, single point] | –
